MIC of invasive clinical C. tropicalis isolates, CLSI broth microdilution (fluconazole 0.12-256 mg/L, up to 1,024 for the azole-resistant cluster and its neighbour group; other ranges not stated); higher = less susceptible. Call: susceptible or wild type [S] / resistant or non-wild type [R] by CLSI breakpoints or cut-offs; intermediate and dose-dependent carry no call. '<=' and '>=' at the end values are inferred; the source marks only some of them. Isolates are numbered anew.
What follows are test systems tested with C[C@@H]1[C@H](O)[C@@H](C)/C=C/C=C/C=C/C=C/C=C/C=C/C=C/[C@H](O[C@@H]2O[C@H](C)[C@@H](O)[C@H](N)[C@@H]2O)C[C@@H]2O[C@](O)(C[C@@H](O)C[C@@H](O)[C@H](O)CC[C@@H](O)C[C@@H](O)CC(=O)O[C@H]1C)C[C@H](O)[C@H]2C(=O)O [amphotericin B] (assay: CLSI broth microdilution.).

| Test System | MIC |
| --- | --- |
| Candida tropicalis isolate 434 (ERG11 copies: 6, Erg11p: Y132F, S154F, P397S (heterozygous)) | 1 mg/L [S] |
| Candida tropicalis isolate 355 (ERG11 copies: 2, Erg11p: no key change) | 0.5 mg/L [S] |
| Candida tropicalis isolate 210 (ERG11 copies: 2, Erg11p: no key change) | 0.25 mg/L [S] |
| Candida tropicalis isolate 317 (ERG11 copies: 2, Erg11p: no key change) | 1 mg/L [S] |
| Candida tropicalis isolate 270 (ERG11 copies: 2, Erg11p: no key change) | 0.5 mg/L [S] |
| Candida tropicalis isolate 267 (ERG11 copies: 2, Erg11p: no key change) | 0.5 mg/L [S] |
| Candida tropicalis isolate 100 (ERG11 copies: 2, Erg11p: no key change) | 2 mg/L [S] |
| Candida tropicalis isolate 293 (ERG11 copies: 2, Erg11p: no key change) | 0.5 mg/L [S] |
| Candida tropicalis isolate 126 (ERG11 copies: 2, Erg11p: no key change) | 1 mg/L [S] |

The test systems below were run with Nc1[nH]c(=O)ncc1F [flucytosine] (assay: CLSI broth microdilution.).

| Test System | MIC |
| --- | --- |
| Candida tropicalis isolate 24 (ERG11 copies: 2, Erg11p: Y132F, S154F (homozygous)) | 0.25 mg/L [S] |
| Candida tropicalis isolate 213 (ERG11 copies: 2, Erg11p: no key change) | ≤ 0.06 mg/L [S] |
| Candida tropicalis isolate 118 (ERG11 copies: 2, Erg11p: no key change) | 0.12 mg/L [S] |
| Candida tropicalis isolate 158 (ERG11 copies: 2, Erg11p: no key change) | ≤ 0.06 mg/L [S] |
| Candida tropicalis isolate 284 (ERG11 copies: 6, Erg11p: Y132F, S154F (heterozygous)) | ≤ 0.06 mg/L [S] |
| Candida tropicalis isolate 373 (ERG11 copies: 2, Erg11p: no key change) | ≤ 0.06 mg/L [S] |
| Candida tropicalis isolate 261 (ERG11 copies: 8, Erg11p: Y132F, S154F (heterozygous)) | ≤ 0.06 mg/L [S] |
| Candida tropicalis isolate 394 (ERG11 copies: 2, Erg11p: no key change) | ≤ 0.06 mg/L [S] |
| Candida tropicalis isolate 408 (ERG11 copies: 2, Erg11p: no key change) | ≤ 0.06 mg/L [S] |
| Candida tropicalis isolate 289 (ERG11 copies: 2, Erg11p: no key change) | ≤ 0.06 mg/L [S] |
| Candida tropicalis isolate 342 (ERG11 copies: 2, Erg11p: no key change) | 0.12 mg/L [S] |
| Candida tropicalis isolate 315 (ERG11 copies: 2, Erg11p: no key change) | 0.12 mg/L [S] |
| Candida tropicalis isolate 243 (ERG11 copies: 2, Erg11p: no key change) | 0.12 mg/L [S] |
| Candida tropicalis isolate 51 (ERG11 copies: 2, Erg11p: no key change) | ≤ 0.06 mg/L [S] |
| Candida tropicalis isolate 160 (ERG11 copies: 2, Erg11p: no key change) | ≤ 0.06 mg/L [S] |
| Candida tropicalis isolate 202 (ERG11 copies: 2, Erg11p: no key change) | ≤ 0.06 mg/L [S] |
| Candida tropicalis isolate 128 (ERG11 copies: 2, Erg11p: no key change) | ≤ 0.06 mg/L [S] |
| Candida tropicalis isolate 348 (ERG11 copies: 2, Erg11p: no key change) | ≤ 0.06 mg/L [S] |

| Test System | MIC |
| --- | --- |
| Candida tropicalis isolate 204 (ERG11 copies: 2, Erg11p: Y132F, S154F (homozygous)) | ≤ 0.06 mg/L [S] |
| Candida tropicalis isolate 47 (ERG11 copies: 8, Erg11p: Y132F, S154F (heterozygous)) | ≤ 0.06 mg/L [S] |
| Candida tropicalis isolate 163 (ERG11 copies: 2, Erg11p: no key change) | 0.12 mg/L [S] |
| Candida tropicalis isolate 82 (ERG11 copies: 2, Erg11p: no key change) | ≤ 0.06 mg/L [S] |
| Candida tropicalis isolate 139 (ERG11 copies: 2, Erg11p: no key change) | ≤ 0.06 mg/L [S] |
| Candida tropicalis isolate 180 (ERG11 copies: 2, Erg11p: no key change) | 0.12 mg/L [S] |
| Candida tropicalis isolate 111 (ERG11 copies: 2, Erg11p: no key change) | ≤ 0.06 mg/L [S] |
| Candida tropicalis isolate 195 (ERG11 copies: 2, Erg11p: no key change) | ≤ 0.06 mg/L [S] |
| Candida tropicalis isolate 409 (ERG11 copies: 2, Erg11p: Y132F, S154F (homozygous)) | ≤ 0.06 mg/L [S] |
| Candida tropicalis isolate 434 (ERG11 copies: 6, Erg11p: Y132F, S154F, P397S (heterozygous)) | ≤ 0.06 mg/L [S] |
| Candida tropicalis isolate 355 (ERG11 copies: 2, Erg11p: no key change) | ≤ 0.06 mg/L [S] |
| Candida tropicalis isolate 210 (ERG11 copies: 2, Erg11p: no key change) | ≤ 0.06 mg/L [S] |
| Candida tropicalis isolate 317 (ERG11 copies: 2, Erg11p: no key change) | ≤ 0.06 mg/L [S] |
| Candida tropicalis isolate 270 (ERG11 copies: 2, Erg11p: no key change) | ≤ 0.06 mg/L [S] |
| Candida tropicalis isolate 267 (ERG11 copies: 2, Erg11p: no key change) | ≤ 0.06 mg/L [S] |
| Candida tropicalis isolate 100 (ERG11 copies: 2, Erg11p: no key change) | ≤ 0.06 mg/L [S] |
| Candida tropicalis isolate 293 (ERG11 copies: 2, Erg11p: no key change) | ≤ 0.06 mg/L [S] |
| Candida tropicalis isolate 126 (ERG11 copies: 2, Erg11p: no key change) | ≤ 0.06 mg/L [S] |

Each test system was assayed with OC(Cn1cncn1)(Cn1cncn1)c1ccc(F)cc1F [fluconazole] (assay: CLSI broth microdilution.).

| Test System | MIC |
| --- | --- |
| Candida tropicalis isolate 24 (ERG11 copies: 2, Erg11p: Y132F, S154F (homozygous)) | > 256 mg/L [R] |
| Candida tropicalis isolate 213 (ERG11 copies: 2, Erg11p: no key change) | 1 mg/L [S] |
| Candida tropicalis isolate 118 (ERG11 copies: 2, Erg11p: no key change) | 2 mg/L [S] |
| Candida tropicalis isolate 158 (ERG11 copies: 2, Erg11p: no key change) | 0.5 mg/L [S] |
| Candida tropicalis isolate 284 (ERG11 copies: 6, Erg11p: Y132F, S154F (heterozygous)) | 256 mg/L [R] |
| Candida tropicalis isolate 373 (ERG11 copies: 2, Erg11p: no key change) | 1 mg/L [S] |
| Candida tropicalis isolate 261 (ERG11 copies: 8, Erg11p: Y132F, S154F (heterozygous)) | 512 mg/L [R] |
| Candida tropicalis isolate 394 (ERG11 copies: 2, Erg11p: no key change) | 0.25 mg/L [S] |
| Candida tropicalis isolate 408 (ERG11 copies: 2, Erg11p: no key change) | 8 mg/L [R] |
| Candida tropicalis isolate 289 (ERG11 copies: 2, Erg11p: no key change) | 2 mg/L [S] |
| Candida tropicalis isolate 342 (ERG11 copies: 2, Erg11p: no key change) | 2 mg/L [S] |
| Candida tropicalis isolate 315 (ERG11 copies: 2, Erg11p: no key change) | 1 mg/L [S] |
| Candida tropicalis isolate 243 (ERG11 copies: 2, Erg11p: no key change) | 1 mg/L [S] |
| Candida tropicalis isolate 51 (ERG11 copies: 2, Erg11p: no key change) | 0.5 mg/L [S] |
| Candida tropicalis isolate 160 (ERG11 copies: 2, Erg11p: no key change) | 4 µg/mL |
| Candida tropicalis isolate 202 (ERG11 copies: 2, Erg11p: no key change) | 1 mg/L [S] |
| Candida tropicalis isolate 128 (ERG11 copies: 2, Erg11p: no key change) | 0.5 mg/L [S] |
| Candida tropicalis isolate 348 (ERG11 copies: 2, Erg11p: no key change) | 1 mg/L [S] |

| Test System | MIC |
| --- | --- |
| Candida tropicalis isolate 204 (ERG11 copies: 2, Erg11p: Y132F, S154F (homozygous)) | 64 mg/L [R] |
| Candida tropicalis isolate 47 (ERG11 copies: 8, Erg11p: Y132F, S154F (heterozygous)) | 512 mg/L [R] |
| Candida tropicalis isolate 163 (ERG11 copies: 2, Erg11p: no key change) | 1 mg/L [S] |
| Candida tropicalis isolate 82 (ERG11 copies: 2, Erg11p: no key change) | 2 mg/L [S] |
| Candida tropicalis isolate 139 (ERG11 copies: 2, Erg11p: no key change) | 1 mg/L [S] |
| Candida tropicalis isolate 180 (ERG11 copies: 2, Erg11p: no key change) | 0.25 mg/L [S] |
| Candida tropicalis isolate 111 (ERG11 copies: 2, Erg11p: no key change) | 0.25 mg/L [S] |
| Candida tropicalis isolate 195 (ERG11 copies: 2, Erg11p: no key change) | 0.5 mg/L [S] |
| Candida tropicalis isolate 409 (ERG11 copies: 2, Erg11p: Y132F, S154F (homozygous)) | 128 mg/L [R] |
| Candida tropicalis isolate 434 (ERG11 copies: 6, Erg11p: Y132F, S154F, P397S (heterozygous)) | 256 mg/L [R] |
| Candida tropicalis isolate 355 (ERG11 copies: 2, Erg11p: no key change) | 2 mg/L [S] |
| Candida tropicalis isolate 210 (ERG11 copies: 2, Erg11p: no key change) | 2 mg/L [S] |
| Candida tropicalis isolate 317 (ERG11 copies: 2, Erg11p: no key change) | 2 mg/L [S] |
| Candida tropicalis isolate 270 (ERG11 copies: 2, Erg11p: no key change) | 1 mg/L [S] |
| Candida tropicalis isolate 267 (ERG11 copies: 2, Erg11p: no key change) | 1 mg/L [S] |
| Candida tropicalis isolate 100 (ERG11 copies: 2, Erg11p: no key change) | 64 mg/L [R] |
| Candida tropicalis isolate 293 (ERG11 copies: 2, Erg11p: no key change) | 2 mg/L [S] |
| Candida tropicalis isolate 126 (ERG11 copies: 2, Erg11p: no key change) | 2 mg/L [S] |

— the supplement of paper PMC10724272
